Out of some 310,000 compounds screened, about 14,000 (4.5%) showed an effect of 50% or more. The effect is printed as a negative number. The list shows a part of the results.
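Further: peak tail current of the secondary pulse compared with the same well before compound.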

This assay deals with human ether-à-go-go-related gene (hERG) potassium channel (human, UniProt Q12809). In words: primary screen, population patch clamp on CHO cells stably expressing hERG.
human ether-à-go-go-related gene (hERG) potassium channel, sequence (Q12809 whole entry, looked up): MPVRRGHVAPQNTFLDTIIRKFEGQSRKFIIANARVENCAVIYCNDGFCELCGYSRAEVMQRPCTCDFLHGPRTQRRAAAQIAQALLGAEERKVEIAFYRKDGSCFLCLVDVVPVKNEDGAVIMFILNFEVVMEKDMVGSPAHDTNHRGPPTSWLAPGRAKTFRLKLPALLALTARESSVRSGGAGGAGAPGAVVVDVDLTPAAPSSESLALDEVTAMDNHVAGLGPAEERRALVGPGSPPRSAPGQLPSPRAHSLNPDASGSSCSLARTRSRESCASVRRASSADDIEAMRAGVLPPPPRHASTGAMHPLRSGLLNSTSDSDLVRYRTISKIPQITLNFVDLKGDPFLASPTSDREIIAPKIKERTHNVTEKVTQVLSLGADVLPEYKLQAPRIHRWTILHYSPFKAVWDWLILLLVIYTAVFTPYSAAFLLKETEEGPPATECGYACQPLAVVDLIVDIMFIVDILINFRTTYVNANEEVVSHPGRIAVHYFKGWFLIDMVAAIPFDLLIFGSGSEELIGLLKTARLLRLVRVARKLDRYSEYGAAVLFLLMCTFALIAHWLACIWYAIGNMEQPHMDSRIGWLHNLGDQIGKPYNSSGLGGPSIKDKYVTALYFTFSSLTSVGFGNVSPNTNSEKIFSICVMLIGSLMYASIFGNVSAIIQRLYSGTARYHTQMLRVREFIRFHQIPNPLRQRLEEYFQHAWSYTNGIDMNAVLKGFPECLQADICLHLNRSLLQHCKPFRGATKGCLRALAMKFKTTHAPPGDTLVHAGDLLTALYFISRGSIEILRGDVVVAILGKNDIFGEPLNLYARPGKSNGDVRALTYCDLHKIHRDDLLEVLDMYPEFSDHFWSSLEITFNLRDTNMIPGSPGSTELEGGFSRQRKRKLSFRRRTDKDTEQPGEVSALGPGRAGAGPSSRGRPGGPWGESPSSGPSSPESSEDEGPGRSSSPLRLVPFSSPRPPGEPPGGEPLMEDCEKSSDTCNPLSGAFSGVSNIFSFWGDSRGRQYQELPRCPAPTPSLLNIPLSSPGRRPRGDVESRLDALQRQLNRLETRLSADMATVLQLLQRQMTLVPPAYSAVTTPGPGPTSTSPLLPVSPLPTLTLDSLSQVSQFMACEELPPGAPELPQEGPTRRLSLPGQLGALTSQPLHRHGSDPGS
Turning to `O=C(CCC(=O)N1CCN(c2ccc(O)cc2)CC1)c1cccs1`, the “hERG current change (%, negative = inhibition) at 10uM” value was -3.11%.
In the case of `Cc1cc(C)c2c(N=NN3CCOCC3)[nH]nc2n1` it was -41.2%.
Consider `O=C(NCCCN1CCOCC1)c1onc(CSc2nc3ccccc3[nH]2)c1C(=O)NCCCN1CCOCC1`, for which the “hERG current change (%, negative = inhibition) at 10uM” value turned out to be 15.9%.
The value for `COc1ccc(N(CC(=O)N2CCN(Cc3ccccc3)CC2)S(C)(=O)=O)cc1` was -3%; that for `Cc1ccc(OCC(=O)NNC(=O)C(=O)N2CCCC2)c(C)c1` was 1.66%.
The value for `O=C(Nc1cccnc1)C1CCN(S(=O)(=O)c2cccs2)CC1` was 33.7%; that for `COC(=O)c1c(N)n(Cc2ccc(OC)cc2)c2nc3ccccc3nc12` was -34.1%; that for `COc1cc(/C=N/NC(=O)c2cc(-c3ccccc3)nc3ccccc23)ccc1O` was 6.54%.
The value for `O=C1NC(=Nc2ccccc2)SC1Cc1cccc(Cl)c1Cl` (stereo not drawn) was -0.897%; that for `CC1CCN(S(=O)(=O)c2cc(C(=O)NC3(C)CCS(=O)(=O)C3)ccc2Br)CC1` (stereo not drawn) was -44.8%.
Regarding `O=[N+]([O-])c1cccc(-c2n[nH]c(=S)n2Cc2ccccc2)c1`, the “hERG current change (%, negative = inhibition) at 10uM” value stood at 4.24%.
Take `COC(=O)c1sccc1NN1C(=O)c2ccccc2C1=O`: the “hERG current change (%, negative = inhibition) at 10uM” value was determined as 7.36%.
In the case of `COc1ccc(-c2nc(-c3cccnc3)no2)cc1` it was 13.8%; in that of `Cc1onc(-c2ccccc2)c1CNC(=O)Nc1ccc(C(F)(F)F)cc1`, 14.9%; in that of `Cc1[nH]c(=O)[nH]c(=O)c1S(=O)(=O)N1CCCC(C(=O)N2CCN(c3cccc(C(F)(F)F)c3)CC2)C1` (stereo not drawn), 15.6%.
As for `COc1ccccc1C1OC(c2cccc([N+](=O)[O-])c2)=NN1C(C)=O` (stereo not drawn), the “hERG current change (%, negative = inhibition) at 10uM” value is -62%.
Turning to `CCOC(=O)N1CCC(N(CCN(C)C)C(=S)Nc2ccc(Oc3ccccc3)cc2)CC1`, the “hERG current change (%, negative = inhibition) at 10uM” value was -6.02%.
In the case of `COc1ccc(C2=NOC(CN3C(=O)c4ccccc4S3(=O)=O)C2)cc1` (stereo not drawn) it was -27%; in that of `O=C(N/N=C/c1c(Cl)cccc1Cl)C(=O)NC1CC1`, 54.8%.
The value for `Cc1c(Cl)c([N+](=O)[O-])nn1CC(=O)NC12CC3CC(CC(C3)C1)C2` was 6.04%.
Regarding `COc1cccc(CN2CCCC(C(=O)c3ccc4c(c3)OCO4)C2)c1OC` (stereo not drawn), the “hERG current change (%, negative = inhibition) at 10uM” value is -63.3%.
The value for `COc1cc(/C=C2/C(=O)NN(c3cccc(C)c3)C2=O)ccc1OC(=O)c1ccco1` was 1.6%; that for `CCOC(=O)Cc1ccc2sc(-c3ccccc3)nc2c1` was -5.73%.
The value for `O=C(NNc1nc2cc3c(cc2s1)OCCO3)c1ccc(F)cc1` was -1%; that for `CCN(CC)S(=O)(=O)c1cccc(C(=O)Nc2cccnc2)c1` was -17.7%.
The value for `Cc1ccc(NC(=O)CN2C(=O)C(=O)N(C3CCCC3)C2=O)cc1Cl` was -11.4%; that for `CCOc1ccc2oc(C(=O)NC3CC(C)(C)NC(C)(C)C3)c(C)c2c1` was 12.4%.
Regarding `CCOc1nc(NCCN2CCOCC2)nc(NC(C)C)n1`, the “hERG current change (%, negative = inhibition) at 10uM” value is -9.84%.
Regarding `CCC(Cc1ccccc1)n1c(=S)[nH]c2ccccc2c1=O` (stereo not drawn), the “hERG current change (%, negative = inhibition) at 10uM” value is recorded as -6.3%.
The value for `COc1cc(OC)cc(C(=O)NCCNC(=O)c2ccccc2)c1` was 10.7%.
As for `NC(=O)CCS(=O)(=O)c1ccc(Cl)cc1`, the “hERG current change (%, negative = inhibition) at 10uM” value is listed as -18.3%.
With `Cc1c2c([n+]3n1CCC3)CC(C)(C)CC2=O.[Br-]`, the “hERG current change (%, negative = inhibition) at 10uM” value worked out at 32.1%.
The value for `COc1ccc(C(=O)N2CCN(Cc3ccccc3[N+](=O)[O-])CC2)cc1.O=C(O)C(=O)O` was -58.9%; that for `O=C(Nc1ccc(NC(=O)C2CCCN2C(=O)OCc2ccccc2)cc1)c1ccco1` (stereo not drawn) was 11.3%.
For the compound `O=C(C1CCN(S(=O)(=O)c2cnc[nH]2)CC1)N1CCN(Cc2ccc3c(c2)OCO3)CC1`, the “hERG current change (%, negative = inhibition) at 10uM” value is reported as 0.674%.
On to `O=C(C1=C(O)C(=O)N(CCc2ccccc2)C1c1ccncc1)c1cc2ccccc2o1` (stereo not drawn), for which the “hERG current change (%, negative = inhibition) at 10uM” value was 6.99%.
Turning to `CCOC(=O)CN1CC23C=CC(O2)C(C(=O)N2CCN(c4ccc(F)cc4)CC2)C3C1=O` (stereo not drawn), the “hERG current change (%, negative = inhibition) at 10uM” value worked out at 2.47%.
As for `O=C(Nc1ccc(S(=O)(=O)Nc2nccs2)cc1)C1CC(=O)N(c2ccc(Cl)cc2)C1` (stereo not drawn), the “hERG current change (%, negative = inhibition) at 10uM” value worked out at 0.55%.
Regarding `O=c1c(Cl)c(N/N=C/c2ccc(Br)cc2)cnn1-c1ccccc1`, the “hERG current change (%, negative = inhibition) at 10uM” value is recorded as 5.29%.
In the case of `COc1cc(C)ccc1S(=O)(=O)NC1CC(C)(C)NC(C)(C)C1` it was -8.88%; in that of `O=C(NCc1ccccc1)c1csc2c1CCCCC2`, 15%; in that of `CCn1c(SCC(=O)Nc2cc3oc4ccccc4c3cc2OC)nnc1-c1cccs1`, 17.1%.
In the case of `CCN(CC)C(=O)c1cc([N+](=O)[O-])cc2c1-c1ccc([N+](=O)[O-])cc1C2=C(C#N)C#N` it was -22.8%; in that of `CCOc1ccccc1-c1nc(C(N)=O)c2[nH]c(=O)n(-c3ccc(F)cc3)c2n1`, -12.6%.
The value for `CC(=O)OCc1c(C(F)(F)F)nn(C)c1Oc1cccc(C(F)(F)F)c1` was 2.3%.
As to `CC1(c2ccc3ccccc3c2)NC(=O)N(CC(=O)N2CCC(C(N)=O)CC2)C1=O` (stereo not drawn), the “hERG current change (%, negative = inhibition) at 10uM” value is 2.08%.
In the case of `CC(=O)N(c1cccc(C)c1)C1SC(=O)N(c2ccccc2)C1=O` (stereo not drawn) it was 15.7%; in that of `CC1(C)Oc2ccccc2OC1(O)c1ccc2ccccc2n1` (stereo not drawn), 0.764%; in that of `Cc1ccc(OCC(=O)N(C)Cc2ccccc2)c([N+](=O)[O-])n1`, 3.95%.
In the case of `O=[N+]([O-])c1cc(-c2cnc3ccccc3n2)ccc1Oc1ccc(Cl)cc1`, the “hERG current change (%, negative = inhibition) at 10uM” value is -0.863%.
In the case of `O=C(NCCc1ccccc1F)C1CCCN1S(=O)(=O)c1ccccc1` (stereo not drawn) it was -33.3%; in that of `O=C(Oc1csc(=S)n1C(=O)c1ccccc1)c1ccccc1`, 14.1%.
Regarding `Cn1c(=O)n(C)c2cc(/C=C3/NC(=O)N(Cc4ccccc4)C3=O)ccc21`, the “hERG current change (%, negative = inhibition) at 10uM” value stood at 4.76%.
The value for `Cn1cccc1Cc1nnc(SCC(=O)NCc2ccc(F)cc2)n1-c1ccc(F)cc1` was -30.4%; that for `O=C(c1ccco1)N1CCN(C(c2ccccc2)c2nnnn2Cc2cccs2)CC1` (stereo not drawn) was -38.9%; that for `O=C1NC(=O)N(c2ccccc2)C(=O)/C1=C/c1ccc([N+](=O)[O-])s1` was 11.8%.
The value for `Cc1cccc(C(=O)N[C@H](C(=O)Nc2ncc(C)s2)C(C)C)c1` was 46.4%; that for `CN(CC(=O)NCc1ccccc1Cl)CC(=O)Nc1ccccc1Br` was -17.8%.
The value for `COc1ccc(N(CC(=O)Nc2c(C)n(C)n(-c3ccccc3)c2=O)S(=O)(=O)c2ccccc2)cc1OC` was -6.8%.
Turning to `O=[N+]([O-])c1ccc(/C=N/Nc2nc(N3CCCCC3)nc(N3CCCCC3)n2)o1`, the “hERG current change (%, negative = inhibition) at 10uM” value is -18.1%.
With `CCc1cc2c(=O)c(-c3ccc(F)cc3)c(C)oc2cc1OCC(=O)O`, the “hERG current change (%, negative = inhibition) at 10uM” value is recorded as 20.1%.
In the case of `O=C(CNC(=O)c1ccc(Br)cc1)Nc1ccc(Br)cc1C(=O)c1ccccc1` it was 8.45%.
Regarding `CCCCC(=O)Nc1ccc2c(c1)nc(CCN1CCN(c3ccccn3)CC1)n2C`, the “hERG current change (%, negative = inhibition) at 10uM” value is reported as -56.5%.
The value for `COc1ccccc1C(=O)C1CCCN(C(=O)c2ccccc2Cl)C1` (stereo not drawn) was 10.4%.
On to `O=c1c2ccccc2[nH]c(=S)n1-c1cccnc1`, for which the “hERG current change (%, negative = inhibition) at 10uM” value was found to be 8.44%.
As for `CCc1ccc2[nH]c(=O)c(CN(CCN(CC)CC)C(=S)NCc3ccco3)cc2c1`, the “hERG current change (%, negative = inhibition) at 10uM” value is -67.9%.
Regarding `Oc1c(C(Nc2cccc(C(F)(F)F)c2)c2cccnc2)ccc2cccnc12` (stereo not drawn), the “hERG current change (%, negative = inhibition) at 10uM” value stood at 10.8%.
In the case of `O=P(O)(O)O.c1ccc(CSCCc2ccncc2)cc1` it was -5.48%; in that of `Cl.Nc1nc2cc3ccccc3cc2[nH]c1=O`, 3.54%; in that of `CCOc1ccc(NC(=O)CS(=O)(=O)c2cn(CC)c3ccccc23)cc1`, -4.64%.
In the case of `Cc1cc(C)c(OCC(=O)Nc2ccc(S(=O)(=O)N3CCOCC3)cc2)c(C)c1` it was -22.8%.
The value for `CCc1nnc(NC(=O)c2ccc(S(=O)(=O)N3CCN(Cc4ccccc4)CC3)cc2)s1` was 1.72%; that for `NC(N)=NS(=O)(=O)c1ccc(N=C2C(=O)Nc3ccccc32)cc1` was -11.6%.
Consider `CC(O)CN1CC(O)=C(c2nc3ccccc3s2)C1=N` (stereo not drawn), for which the “hERG current change (%, negative = inhibition) at 10uM” value is 3.89%.
The value for `COc1cc(CNCCO)ccc1OCCc1ccccc1` was 6.61%; that for `COc1cccc(CN2CC(C(=O)NCCCc3ccncc3)CCC2=O)c1` (stereo not drawn) was 7.61%.
Turning to `O=C(CCSc1nnc2ccc3ccccc3n12)Nc1ccc(F)cc1`, the “hERG current change (%, negative = inhibition) at 10uM” value was 1.96%.
Regarding `Cc1ccc(C)c(NC(=O)CSc2nnc(-c3ccco3)o2)c1`, the “hERG current change (%, negative = inhibition) at 10uM” value is 5.02%.
In the case of `Nc1cccc2c1C(=O)N(CCOc1ccc(F)cc1)C2=O` it was 3.98%; in that of `Cc1c(Cl)cccc1NC(=S)NCCc1ccccn1`, 9.25%.
The value for `COc1ccc(C(=O)N/C(=C\c2cn(C)c3ccccc23)C(=O)N2CCOCC2)cc1OC` was 6.13%; that for `CC(C)N1CCc2c(sc(NC(=O)c3ccc(S(=O)(=O)N4CCOCC4)cc3)c2C(N)=O)C1` was -11.2%.
The value for `CC(=O)c1ccc(-c2ccc(C(=O)N(C)c3c(N)n(Cc4ccccc4)c(=O)[nH]c3=O)o2)cc1` was -14.5%; that for `CC(C)NS(=O)(=O)c1ccc(OCC(=O)N2CCN(Cc3ccccc3)CC2)c(Cl)c1` was -11.5%.

Values taken from article PMC4336329 (PLoS ONE, 2015).
